Holding throughout (conditions): concentration: 1 μM,replicates: in singlicate; n = 1
The subject of assay [1] is ACVRL1.
Assay [2] has as its system T1, ADCK3.
T1 construct: gene CABC1

The subject of assay [3] is ADCK4.
Assay [4] has as its system AKT1.
Assay [5] relates to AKT2.
In assay [6] the test system is AKT3.
Assay [7] concerns ALK.
For assay [8], the system named is T2, AMPK-alpha1.
T2 construct: gene PRKAA1

The subject of assay [9] is T3, AMPK-alpha2.
T3 construct: gene PRKAA2

Assay [10] concerns ANKK1.

Structures are written as SMILES. For some of these results: This list holds what a sample rich in strong results left over. The list shows a part of the results, in another mix than the full data.
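Further: KINOMEscan kinase panel screen.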

`O=C1NC(=O)C(c2ccccc2Cl)=C1Nc1ccccc1` [SB-376715]: the “%Inh” value came out at 0% in assay [1]; 14% in [2]; 11% in [3]; 0% in assay [4]; 2% in [5]; 47% in [6]. Besides, the “%Inh” value amounted to 0% in assay [7], 23% in assay [8], 0% in [9] and 0% in [10].

For the compound `O=C1NC(=O)C(c2ccccc2)=C1Nc1ccc(Cl)c(C(=O)O)c1` [SB-390532], the “%Inh” value is given as 0% in assay [1]; 12% in assay [2]; 46% in assay [3]; 0% in assay [4]; 13% in assay [5]; 0% in assay [6]. For the same compound, the “%Inh” value in [7] stood at 39%; in [8] it was 0%; in assay [9], 0%; in assay [10], 1%.

In the case of `COc1cccc(C2=C(Nc3ccc(SC)cc3)C(=O)NC2=O)c1` [SB-331032], the “%Inh” value in assay [1] is listed as 0%; in [2], 0%; in assay [3], 4%; in assay [4], 0%; in [5] it was 0%; in [6], 2%. Moreover, the “%Inh” value in [7] is given as 11%; in [8] it was 17%; in assay [9], 0%; in [10], 2%.

Take `O=C1NC(=O)C(c2ccc(Cl)cc2)=C1Nc1cccc(O)c1` [SB-333613]: the “%Inh” value in assay [1] is 0%; in assay [2], 0%; in [3] it was 19%; in assay [4], 12%; in [5], 0%; in assay [6] it was 0%. The “%Inh” value in assay [7] turned out to be 50%; in [8], 8%; in assay [9] it was 13%; in [10], 25%.

As for `Cc1cc(C)cc(Oc2nccc(-c3c(-c4ccc(F)cc4)ncn3C3CCNCC3)n2)c1.O=C(O)C(F)(F)F.O=C(O)C(F)(F)F.O=C(O)C(F)(F)F` [SB-284851], the “%Inh” value in assay [1] was 0%; in assay [2], 20%; in assay [3], 0%; in [4], 15%; in [5] it was 0%; in assay [6] it was 0%. In addition, the “%Inh” value came out at 19% in assay [7], 0% in assay [8], 5% in assay [9] and 0% in assay [10].

As to `O=C1NC(=O)C(c2ccccc2Cl)=C1Nc1cccc(C(=O)O)c1` [SB-390526], the “%Inh” value in [1] amounted to 0%; in assay [2], 4%; in [3] it was 16%; in assay [4], 0%; in assay [5], 0%; in assay [6], 0%. For the same compound, the “%Inh” value in [7], in assay [8], in [9] and in assay [10] was 0% in each case.

On to `Cc1ccc(C)c(Oc2nccc(-c3c(-c4ccc(F)cc4)ncn3C3CCNCC3)n2)c1.O=C(O)C(F)(F)F.O=C(O)C(F)(F)F.O=C(O)C(F)(F)F` [SB-284852], for which the “%Inh” value worked out at 25% in [1]; 17% in assay [2]; 19% in assay [3]; 22% in [4]; 0% in assay [5]; 7% in [6]. The “%Inh” value in assay [7] was determined as 0%; in assay [8] it was 19%; in assay [9], 3%; in assay [10] it was 0%.

With `O=C1NC(=O)C(c2ccccc2)=C1Nc1cc(Cl)c(O)c(Cl)c1` [SB-390530], the “%Inh” value in [1] came to 0%; in assay [2], 0%; in [3], 3%; in assay [4], 2%; in [5], 21%; in [6], 0%. The “%Inh” value is on record as 0% in assay [7], 17% in assay [8], 9% in assay [9] and 15% in assay [10].

Turning to `CS(=O)(=O)c1ccccc1-c1nc(-c2ccc(F)cc2)c(-c2ccncc2)[nH]1` [SB-213663], the “%Inh” value was found to be 0% in assay [1]; 0% in assay [2]; 12% in assay [3]; 0% in assay [4]; 0% in assay [5]; 25% in assay [6]. Besides, the “%Inh” value was 17% in assay [7], 0% in [8], 0% in [9] and 0% in assay [10].

On to `O=C1NC(=O)C(c2ccc(Cl)cc2)=C1Nc1cccc(C(=O)O)c1` [SB-360737], for which the “%Inh” value in assay [1] is recorded as 0%; in assay [2], 5%; in [3], 22%; in assay [4], 0%; in assay [5], 6%; in assay [6] it was 0%. In addition, the “%Inh” value in assay [7] is on record as 24%; in assay [8], 0%; in assay [9], 16%; in assay [10] it was 3%.

Consider `O=C1NC(=O)C(c2ccc(Cl)cc2)=C1Nc1ccccc1` [SB-317661], for which the “%Inh” value in [1], in assay [2], in assay [3], in [4], in assay [5] and in [6] was 0% in each case. The “%Inh” value in [7] is on record as 77%; in assay [8], 0%; in [9] it was 0%; in assay [10], 5%.

With `O=C(O)c1ccc(-c2nc(-c3ccc(F)cc3)c(-c3ccncc3)[nH]2)cc1` [SB-202620], the “%Inh” value in assay [1] is on record as 29%; in [2], 0%; in assay [3] it was 6%; in [4], 3%; in assay [5], 11%; in [6], 8%. In addition, the “%Inh” value is 0% in [7], 23% in assay [8], 12% in assay [9] and 0% in assay [10].

As to `O=C1NC(=O)c2c1c(-c1ccccc1)cc1[nH]c3ccc(O)cc3c21`, the “%Inh” value was determined as 0% in assay [1]; 8% in assay [2]; 5% in assay [3]; 0% in [4]; 20% in assay [5]; 96.9% in assay [6]. Further, the “%Inh” value in assay [7] came to 8%; in assay [8], 80%; in [9] it was 80%; in [10], 33%.

As to `CSc1ccc(NC2=C(c3cccc(Cl)c3)C(=O)NC2=O)cc1` [SB-341528], the “%Inh” value in [1] turned out to be 0%; in assay [2] it was 7%; in assay [3], 7%; in [4], 0%; in [5] it was 0%; in [6], 15%. For the same compound, the “%Inh” value is reported as 20% in assay [7], 0% in assay [8], 0% in assay [9] and 16% in [10].

Regarding `O=C1NC(=O)C(c2ccc(Cl)cc2)=C1Nc1ccc(O)c(Cl)c1` [SB-405367], the “%Inh” value came out at 75% in assay [1]; 10% in assay [2]; 5% in assay [3]; 4% in assay [4]; 0% in [5]; 6% in assay [6]. Further, the “%Inh” value in assay [7] is recorded as 6%; in [8], 3%; in assay [9] it was 4%; in assay [10], 6%.

For the compound `COc1ccc(C2=C(Nc3cccc(Cl)c3)C(=O)NC2=O)cc1` [SB-326892], the “%Inh” value in assay [1] was found to be 16%; in assay [2] it was 18%; in assay [3], 18%; in [4], 0%; in assay [5], 0%; in assay [6], 17%. The “%Inh” value in assay [7] stood at 0%; in assay [8], 18%; in assay [9], 0%; in assay [10] it was 0%.

The values are drawn from paper PMC5540273 (PLoS ONE, 2017).
